This note sets out measurements from paper PMC6212790.

The other results are listed elsewhere or left out. At the low end of the ranking the order means little.

The test concerns the target T1, GST-Rok-C97-191 (UniProt O34857).
T1 sequence: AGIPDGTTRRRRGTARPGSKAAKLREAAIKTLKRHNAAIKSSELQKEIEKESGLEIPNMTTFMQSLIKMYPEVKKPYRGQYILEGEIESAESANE
The test is described as follows: protein binding microarray.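 Also: rank score from −0.5 (least bound) to 0.5 (best bound).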 The note with it: Rok is a gene silencer of Bacillus subtilis; high values mean tight binding; most listed sequences are background and not binding sites; double strand, one strand shown.
Regarding ACGTTACC, the binding signal is 0.0717 E-score. As to CTGTACGC, the binding signal is -0.19 E-score.

On to ATGCTCTG, for which the binding signal was -0.2 E-score. For AATTGGGG the value was 0.0274 E-score; for ATACCTTG, 0.0513 E-score. For CAGCGATC the value was -0.0229 E-score; for CCTTCAAA, -0.148 E-score. For ACCTCGAC the value was -0.135 E-score. In turn, CGCACAAA returned a binding signal of -0.112 E-score.

For CAAACGTG, the binding signal was -0.085 E-score. For CTACGCAC the value was -0.0856 E-score; for AGTCGGGC, -0.2 E-score; for ACGTCAAT, 0.169 E-score. For ACTCCGAT the value was 0.156 E-score; for CAAGAGAA, 0.0949 E-score.

Turning to AAAATGGT, the binding signal was found to be 0.0133 E-score.

AAGCCACT: the binding signal was -0.139 E-score. On to GCCACAGC, for which the binding signal is -0.362 E-score.

In turn, CGATCGAG came in with a binding signal of -0.107 E-score. The figure for ATGTCGCA is -0.131 E-score; for CCCCCCTC it is -0.365 E-score; for GAGGCCGC it is -0.233 E-score. In turn, AATTGTTG showed a binding signal of 0.151 E-score. CCATAGGA yielded a binding signal of 0.0814 E-score.

For the sequence ACATAGGC, the binding signal was -0.0798 E-score. For the sequence GCAGCCGA, the binding signal was -0.362 E-score. GTACTCGA had a binding signal of -0.0223 E-score.

The sequence ATTTCGGC came in with a binding signal of 0.147 E-score. Turning to GGGAGCAC, the binding signal is -0.183 E-score. GTGTTCCA gave a binding signal of -0.345 E-score. The figure for AGCCTGTG is -0.0607 E-score; for TCGGGAGA it is -0.0327 E-score; for TAGAATAA it is 0.243 E-score.

The sequence CCCAGAAC came in with a binding signal of -0.105 E-score.

With AGCCATAG, the binding signal is -0.106 E-score. The figure for GTTGACAA is -0.0946 E-score; for CAGAGCAA it is -0.119 E-score.

Sequence ATGAGCGC returned a binding signal of -0.0901 E-score. With CCCCGTCA, the binding signal was -0.184 E-score. For GCACGTGA the value was 0.04 E-score. Sequence ACATGGTC had a binding signal of -0.0861 E-score.

Regarding CCTGGGGC, the binding signal was -0.273 E-score. The figure for CTGATAAG is 0.0786 E-score; for ACCATGAC it is -0.0314 E-score; for CGTTGTCA it is 0.0104 E-score. For AACTGTGC the value was -0.0207 E-score. The figure for CTCGTAAA is 0.123 E-score; for CTTATTCA it is 0.048 E-score. For CTTGGGGA, the binding signal was -0.0504 E-score.

The sequence CAGCCCGG came in with a binding signal of -0.138 E-score. For CACAGACC the value was -0.0415 E-score; for CGATATTA, 0.286 E-score; for AGCCTCCA, -0.243 E-score. For ATCACCAT the value was 0.0924 E-score.

On to AATTGTCG, for which the binding signal was found to be 0.0528 E-score. For CCAAAGAG the value was -0.23 E-score; for GGTCACAA, -0.128 E-score. Sequence AATACCCT yielded a binding signal of -0.00373 E-score. In the case of GATTGCAC, the binding signal was determined as 0.024 E-score. The sequence ACGACTCC came in with a binding signal of -0.173 E-score. In the case of AACGAAGC, the binding signal was -0.117 E-score. GTAACGAA gave a binding signal of 0.154 E-score. For CGAATCTC the value was -0.139 E-score. The sequence GTCACGAC gave a binding signal of -0.118 E-score. For CGAAGAAC the value was -0.099 E-score; for AGATGTTG, -0.0437 E-score. The figure for AGCCGGGA is -0.162 E-score; for CTCGGTGC it is -0.0579 E-score.

Take CCCAGTTC: the binding signal is -0.205 E-score. Consider CAAACACG, for which the binding signal is 0.0112 E-score. In the case of ACCATGGC, the binding signal was -0.0256 E-score. The figure for AAGATGTC is -0.253 E-score; for CTGGTTGA it is -0.0916 E-score. For ACGTATCT the value was 0.238 E-score; for ATGCTGAC, -0.0948 E-score; for ATGTCGCG, -0.0211 E-score.

As to CGGGAATA, the binding signal came out at 0.0987 E-score. The figure for GGTGTTTA is 0.101 E-score. Take AAATAAGT: the binding signal stood at 0.215 E-score. For ACAAATCG the value was 0.0972 E-score; for TAGTCGGA, 0.133 E-score. In the case of AGGTAAAG, the binding signal was determined as 0.00717 E-score.

Sequence TATCTCAA came in with a binding signal of 0.205 E-score.

As to ATCCAAGC, the binding signal was -0.0917 E-score. For AATAATAC the value was 0.335 E-score. For ACCCTGCC the value was -0.226 E-score; for AAAAATTT, 0.128 E-score. In the case of TGCATTAA, the binding signal was 0.0933 E-score. Consider CAACAAGG, for which the binding signal is -0.111 E-score.

In turn, AACTCGAT came in with a binding signal of -0.157 E-score. For CGGGACCG the value was -0.162 E-score. For AGCCGTGC the value was -0.0569 E-score. Take AACCTTTA: the binding signal worked out at 0.147 E-score. For TAGAGCTA the value was 0.0867 E-score; for ACTCGAAC, 0.0548 E-score; for GATATTCA, 0.103 E-score. For ACGCCATC the value was -0.0625 E-score. CCAGCGGG showed a binding signal of -0.311 E-score. The figure for ACTGGCTG is -0.139 E-score; for GAGCACTA it is -0.15 E-score; for ATTTACAG it is 0.145 E-score. For AGTCGCTC the value was -0.292 E-score; for CCCTTCCC, -0.235 E-score. The figure for ACACACCA is -0.00894 E-score; for ACATCGCA it is -0.0687 E-score; for CAACACGC it is -0.145 E-score. With CGTACCAG, the binding signal is -0.239 E-score. For GTATCAAC the value was 0.0877 E-score. ACTCCCAG yielded a binding signal of -0.0931 E-score.

For TTCATCAA, the binding signal is -0.0101 E-score. The sequence AGGGGCGA displayed a binding signal of -0.351 E-score. With AGTTCTAG, the binding signal is 0.236 E-score. Regarding CCGTAGGA, the binding signal is -0.257 E-score. ACCGTCAG returned a binding signal of -0.0893 E-score.

Sequence AGGTCTGG came in with a binding signal of -0.123 E-score. The figure for CCAATCGG is -0.274 E-score.

TTCCTAAA gave a binding signal of 0.0647 E-score. Sequence AATTCCTC had a binding signal of -0.0519 E-score. The figure for ACTGCGAT is 0.0198 E-score. The figure for AGGCTGAT is -0.0135 E-score; for CCAATGAC it is -0.298 E-score; for AAGACACC it is -0.185 E-score. For GACCGTGC the value was -0.013 E-score.

In turn, GTACTGAC gave a binding signal of 0.139 E-score. The figure for GAATACTC is 0.0644 E-score; for AAAGGCTA it is -0.0111 E-score. For GACACCCC the value was -0.19 E-score; for AGAGAGAC, -0.149 E-score.

CCAATCAC came in with a binding signal of -0.159 E-score. In turn, GGAAAATA displayed a binding signal of 0.331 E-score. For AGTGGGAT the value was -0.0625 E-score; for AGATTTTC, 0.163 E-score; for GCGGTGGA, -0.152 E-score. The figure for AGCACAAA is 0.15 E-score. The figure for ACCTTTGA is -0.119 E-score; for AGCAGGTG it is -0.296 E-score. Consider ACAATCCT, for which the binding signal worked out at 0.0943 E-score. Turning to ACTTGGAC, the binding signal stood at 0.0459 E-score. Sequence ACGCTGCG registered a binding signal of -0.221 E-score.

With CCCTACCC, the binding signal was -0.235 E-score.

Sequence AATCATAC showed a binding signal of 0.224 E-score.

CGCGTGTC came in with a binding signal of -0.236 E-score.

TCCTCACA came in with a binding signal of -0.0975 E-score.

GAGAACTC came in with a binding signal of -0.264 E-score. For CATGAGAC the value was -0.195 E-score; for CCAACCCC, -0.414 E-score.

The sequence CGATGAAG had a binding signal of 0.0349 E-score.

Take AAATACAC: the binding signal was found to be 0.25 E-score. For AGTTACTA, the binding signal was found to be 0.293 E-score. The sequence ACCCACAG yielded a binding signal of -0.173 E-score. In the case of AATCAATA, the binding signal amounted to 0.227 E-score.

Take CCAGTTAA: the binding signal is 0.0719 E-score.

In turn, AATCCTGC registered a binding signal of -0.0311 E-score. AGTTGTGG gave a binding signal of 0.017 E-score. For AACCCCAA the value was -0.178 E-score. As for GCGAGAGC, the binding signal was -0.214 E-score. CCAAGGGG came in with a binding signal of -0.266 E-score.

As for GCAGAGGC, the binding signal was -0.301 E-score.

Sequence AACCCGAT yielded a binding signal of -0.0936 E-score. Regarding GAGCGCAC, the binding signal was -0.163 E-score. Sequence CTTGCTTA yielded a binding signal of -0.148 E-score.

CGAGAGCA returned a binding signal of -0.155 E-score. The figure for CGGCCCCG is -0.371 E-score; for ATAAGTCC it is 0.221 E-score; for CCCGTCCG it is -0.169 E-score. Turning to ACTCCTTC, the binding signal was -0.0807 E-score.

In the case of GACAGCGC, the binding signal is -0.0791 E-score.

The sequence GTCAATTA displayed a binding signal of 0.163 E-score. In turn, GAACCTGA came in with a binding signal of -0.0577 E-score. For CCCATTGA the value was -0.0701 E-score; for AGGACCTG, -0.227 E-score; for AGAATCCC, 0.0269 E-score.
